Measurements reported in patent publication US20260034244A1 (PANOLOS BIOSCIENCE, published 2026).
Where a chain is given by its changes, count along the chain named. Read-outs that look alike come from different tables or passages of the source.

T1: VEGF-A (UniProt P15692-4 27-191, limits assumed)
T1 sequence (looked up): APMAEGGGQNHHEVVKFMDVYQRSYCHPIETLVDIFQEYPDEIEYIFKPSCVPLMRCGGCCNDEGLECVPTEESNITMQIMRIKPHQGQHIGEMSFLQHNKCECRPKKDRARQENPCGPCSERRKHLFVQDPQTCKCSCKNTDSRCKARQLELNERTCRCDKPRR

T2: VEGF-A (UniProt P15692-4 27-191, limits assumed)
T2 construct: Analyte at 40, 20, 10 nM; also called vascular endothelial growth factor A
T2 sequence (looked up): T1 sequence (looked up)

T3: PLGF (UniProt P49763-2 19-149, limits assumed)
T3 construct: also called placental growth factor
T3 sequence (looked up): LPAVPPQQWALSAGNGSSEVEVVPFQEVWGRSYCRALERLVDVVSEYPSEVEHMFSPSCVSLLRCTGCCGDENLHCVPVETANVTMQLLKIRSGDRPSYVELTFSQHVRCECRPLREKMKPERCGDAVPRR

B1: VEGF-Grab1 (Fc fusion)
chain: EFGRPFVEMYSEIPEIIHMTEGRELVIPCRVTSPNITVTLKKFPLDTLIPDGKRIIWDSRKGFIISNATYKEIGLLTCEATVNGHLYKTNYLTHRQTNTIIDVQISTPSPVTLLRGHTLVLNCTATTPLNTRVQMTWSYPDEKNKRASVRRRIDQSNSHANIFYSVLTIDKMQNKDKGLYTCRVRSGPSFKSVNTSVHIYDKALE[gap - human IgG1 Fc]
B2: C112 (Fc fusion)
chain: EFGRPFVEMYSEIPEIIHMTEGRELVIPCRVTSPNITVTLKKFPLDTLIPDGKRIIWDSRKGFIISNATYKEIGLLTCEATVNGHLYKTNYLTHRQTNTIIDVQISTPRPVKLCRGHTLVLNCTATTPLNTRVQMTWSYPDEKNKRASVRRRIDQSNSHANIFYSVLTIDKMQNKDKGLYTCRVRSGPSFKSVNTSVHIYDCSKVDKKV[gap - human IgG1 Fc with C220S H224Y (EU numbers)]
notes: Disulfide bond variant based on C88
B3: C113 (Fc fusion)
chain: EFGRPFVEMYSEIPEIIHMTEGRELVIPCRVTSPNITVTLKKFPLDTLIPDGKRIIWDSRKGFIISNATYKEIGLLTCEATVNGHLYKTNYLTHRQTNTIIDVQISTPRPVELCVGETLVLNCTATTPANTRVQMTWSYPDEKNKRASVRRRIDQSNSHANIFYSVLTIDGMTNSDKGLYTCRVRSGPSFKSVNTSVHIYDCSNTGSGGEEKKKEKEKEEQEERSSDTPP[gap - human IgG1 Fc]
notes: Combination variant based on C88
B4: C88 (Fc fusion)
chain: B1 chain with S109R, T112K
B5: C89 (Fc fusion)
chain: EFGRPFVEMYSEIPEIIHMTEGRELVIPCRVTSPNITVTLKKFPLDTLIPDGKRIIWDSRKGFIISNATYKEIGLLTCEATVNGHLYKTNYLTHRQTNTIIDVQISTPRPVKLLRGHTLVLNCTATTPLNTRVQMTWSYPDEKNKRASVRRRIDQSNSHANIFYSVLTIDKMQNKDKGLYTCRVRSGPSFKSVNTSVHIYDLE[gap - human IgG1 Fc]
B6: C91 (Fc fusion)
chain: EFGRPFVEMYSEIPEIIHMTEGRELVIPCRVTSPNITVTLKKFPLDTLIPDGKRIIWDSRKGFIISNATYKEIGLLTCEATVNGHLYKTNYLTHRQTNTIIDVQISTPSPVTLLRGHTLVLNCTATTPLNTRVQMTWSYPDEKNKNASVRRRIDQSNSHANIFYSVLTIDKMQNKDKGLYTCRVRSGPSFKSVNTSVHIYDE[gap - human IgG1 Fc]
B7: C88 (Fc fusion)
chain: B1 chain with S109R, T112K
notes: also called VEGFR-wild type protein
B8: C114 (Fc fusion)
chain: EFGRPFVEMYSEIPEIIHMTEGRELVIPCRVTSPNITVTLKKFPLDTLIPDGKRIIWDSRKGFIISNATYKEIGLLTCEATVNGHLYKTNYLTHRQTNTIIDVQISTPRPVELCVGETLVLNCTATTPDNTRVQMTWSYPDEKNKRASVRRRIDQSNSHANIFYSVLTIDGMTNSDKGLYTCRVRSGPSFKSVNTSVHIYDCGSSGGSSGEPKS[gap - human IgG1 Fc and a few adjoining residues]
notes: as for B3

How the values were obtained:
VEGF-A [1] = target: T1, VEGF-A; experiment: cell-based or functional assay
VEGF-A [2] = target: VEGF-A (UniProt P15692); experiment: cell-based or functional assay
VEGF-A [3] = target: T2, VEGF-A; experiment: BLI (Octet), fusion captured on AHC sensor; fold increase vs C88
PLGF [4] = target: T3, PLGF; experiment: BLI (Octet), fusion captured on AHC sensor
PLGF [5] = target: T3, PLGF; experiment: BLI (Octet), fusion captured on AHC sensor; fold increase vs C88
VEGF-A [6] = target: T2, VEGF-A; experiment: BLI (Octet), fusion captured on AHC sensor
PLGF [7] = target: T3, PLGF; experiment: BLI (Octet), fusion captured on AHC sensor; fold increase vs C88; remark: listed apart in the source
PLGF [8] = target: T3, PLGF; experiment: BLI (Octet), fusion captured on AHC sensor; remark: listed apart in the source
VEGF-A [9] = target: T2, VEGF-A; experiment: BLI (Octet), fusion captured on AHC sensor; remark: listed apart in the source
VEGF-A [10] = target: T2, VEGF-A; experiment: BLI (Octet), fusion captured on AHC sensor; fold increase vs C88; remark: listed apart in the source

Binder | VEGF-A inhibition (IC50, µg/ml) (VEGF-A [1]) [µg/mL] | IC50 (µg/ml), luciferase reporter, KDR/NFAT-RE HEK293 cells (VEGF-A [2]) [µg/mL] | Fold (KD) (PLGF [7]) [fold] | Fold (kdis) (PLGF [7]) [fold] | Fold (kon) (PLGF [7]) [fold] | Kd (PLGF [8]) [nM] | koff (PLGF [8]) [s⁻¹] | kon (PLGF [8]) [M⁻¹ s⁻¹] | koff (VEGF-A [9]) [s⁻¹] | kon (VEGF-A [9]) [M⁻¹ s⁻¹] | Fold (KD) (VEGF-A [10]) [fold] | Fold (kdis) (VEGF-A [10]) [fold] | Fold (kon) (VEGF-A [10]) [fold] | further results
B1 | 0.0398 | 0.0398 |  |  |  |  |  |  |  |  |  |  |  | 
B2 |  | 0.034 |  |  |  |  |  |  |  |  |  |  |  | Fold (KD) (VEGF-A [3]): 0.29 fold; Fold (kdis) (VEGF-A [3]): 0.25 fold; Fold (kon) (VEGF-A [3]): 1.17 fold; Kd (PLGF [4]): 0.0438 nM; koff (PLGF [4]): 4.49e-05 s⁻¹; kon (PLGF [4]): 1.03e+06 M⁻¹ s⁻¹; Fold (KD) (PLGF [5]): 4.68 fold; Fold (kdis) (PLGF [5]): 5.53 fold; Fold (kon) (PLGF [5]): 0.85 fold; Kd (VEGF-A [6]): 0.207 nM; koff (VEGF-A [6]): 0.00014 s⁻¹; kon (VEGF-A [6]): 678000 M⁻¹ s⁻¹
B3 |  | 0.0299 | 1.8 | 1.48 | 1.22 | 0.114 | 0.000168 | 1.47e+06 | 0.000123 | 556000 | 0.28 | 0.29 | 0.96 | Kd (VEGF-A [9]): 0.22 nM
B4 | 0.0528 |  |  |  |  |  |  |  |  |  |  |  |  | 
B5 | 0.172 |  |  |  |  |  |  |  |  |  |  |  |  | 
B6 | 0.0389 |  |  |  |  |  |  |  |  |  |  |  |  | 
B7 |  |  | 1 | 1 | 1 | 0.205 | 0.000248 | 1.21e+06 | 3.51e-05 | 578000 | 1 | 1 | 1 | Fold (KD) (VEGF-A [3]): 1 fold; Fold (kdis) (VEGF-A [3]): 1 fold; Fold (kon) (VEGF-A [3]): 1 fold; Kd (PLGF [4]): 0.205 nM; koff (PLGF [4]): 0.000248 s⁻¹; kon (PLGF [4]): 1.21e+06 M⁻¹ s⁻¹; Fold (KD) (PLGF [5]): 1 fold; Fold (kdis) (PLGF [5]): 1 fold; Fold (kon) (PLGF [5]): 1 fold; koff (VEGF-A [6]): 3.51e-05 s⁻¹; kon (VEGF-A [6]): 578000 M⁻¹ s⁻¹; Kd (VEGF-A [9]): 0.0608 nM
B8 |  |  | 1.28 | 0.83 | 1.53 | 0.16 | 0.000298 | 1.86e+06 | < 1e-07 | 547000 | > 60.9 | > 100 | 0.95 | 
